Publication PMC4336329 (PLoS ONE, 2015)
Hit rate of the full screen: of about 310,000 compounds, about 14,000 (4.5%) showed an effect of 50% or more. The effect is printed as a negative number. This is one part of the list.

Biological target: human ether-à-go-go-related gene (hERG) potassium channel (human, UniProt Q12809)
Test: primary screen, population patch clamp on CHO cells stably expressing hERG
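Also: peak tail current of the secondary pulse compared with the same well before compound.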

Sequence of human ether-à-go-go-related gene (hERG) potassium channel (Q12809 whole entry, looked up): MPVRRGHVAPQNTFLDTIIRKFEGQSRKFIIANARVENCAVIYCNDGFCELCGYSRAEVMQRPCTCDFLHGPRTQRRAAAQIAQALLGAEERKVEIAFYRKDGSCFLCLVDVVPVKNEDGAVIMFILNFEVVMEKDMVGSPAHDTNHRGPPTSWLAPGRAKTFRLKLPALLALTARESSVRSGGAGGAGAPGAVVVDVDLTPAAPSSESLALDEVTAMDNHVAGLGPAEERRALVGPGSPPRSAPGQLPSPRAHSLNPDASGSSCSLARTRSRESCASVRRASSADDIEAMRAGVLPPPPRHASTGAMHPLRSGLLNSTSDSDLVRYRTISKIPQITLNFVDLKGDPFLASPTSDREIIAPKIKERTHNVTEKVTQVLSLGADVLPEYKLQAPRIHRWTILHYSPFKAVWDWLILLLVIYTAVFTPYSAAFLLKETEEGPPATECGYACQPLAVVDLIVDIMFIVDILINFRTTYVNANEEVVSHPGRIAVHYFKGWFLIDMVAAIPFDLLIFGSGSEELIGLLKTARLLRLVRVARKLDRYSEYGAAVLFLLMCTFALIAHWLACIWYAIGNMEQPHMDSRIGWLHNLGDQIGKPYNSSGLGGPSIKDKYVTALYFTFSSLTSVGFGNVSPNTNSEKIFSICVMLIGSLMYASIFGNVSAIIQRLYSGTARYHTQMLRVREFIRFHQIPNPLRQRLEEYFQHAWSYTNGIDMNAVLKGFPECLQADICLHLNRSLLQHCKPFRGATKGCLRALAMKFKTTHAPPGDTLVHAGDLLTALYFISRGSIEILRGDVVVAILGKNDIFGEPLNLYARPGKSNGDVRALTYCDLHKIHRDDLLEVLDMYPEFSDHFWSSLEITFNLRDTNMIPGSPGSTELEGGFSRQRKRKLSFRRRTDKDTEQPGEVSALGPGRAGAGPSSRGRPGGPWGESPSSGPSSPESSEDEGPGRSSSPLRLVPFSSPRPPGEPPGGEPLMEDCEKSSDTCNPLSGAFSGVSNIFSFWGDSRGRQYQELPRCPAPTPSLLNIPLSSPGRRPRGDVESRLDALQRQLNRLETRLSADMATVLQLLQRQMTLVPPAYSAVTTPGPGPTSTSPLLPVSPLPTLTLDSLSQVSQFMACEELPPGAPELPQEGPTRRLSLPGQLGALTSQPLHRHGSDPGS

Compound | hERG current change (%, negative = inhibition) at 10uM [%]
CNC(=O)Oc1ccc2c(c1)[C@]1(C)CCN(C)C1N2C.O=C(O)c1ccccc1O (stereo partly shown) | 10.7
O=C(Cc1ccc(Cl)cc1)Nc1ccc(SC(F)F)cc1 | -1.83
CCC(C)(C)NC(=O)C1CCN(c2nc(OC)nc(OC)n2)CC1 | 2.14
Cc1occc1C(=O)Nc1ccc(Br)cc1F | 2.03
CC(=O)NN1C(=O)c2ccccc2NC1c1ccccc1 (stereo not shown) | 10.9
CCc1nnc(NC(=O)CSCc2cc(=O)n3nc(C(C)C)sc3n2)s1 | 8.88
COc1ccc(S(=O)(=O)N2CCSC2c2ccc(N)cc2)cc1 (stereo not shown) | -12
CCOc1ccc(N2C(=O)CC(N3CCN(C(=O)CN4CCCC4)CC3)C2=O)cc1 (stereo not shown) | 13.9
O=S(=O)(Nc1ccc(-n2cccc2)cc1)c1ccccc1 | 5.82
CN(C)c1ccnc(-n2cccc2/C=N/OCc2cccc(F)c2)c1C#N | -18.9
C=CCN(c1ccc(C(=O)Nc2cccc(C)c2)cc1)S(C)(=O)=O | -9.66
CC(C)(C)NC(=O)c1nc2nc(-c3ccccc3)cc(C(F)(F)F)n2n1 | 14.5
N#Cc1c(-c2ccncc2)c2c([nH]c1=S)CCCC2 | 9.16
O=C(COc1ccc(Br)cc1)N1CCN(c2ccccc2)CC1 | -33.7
COc1cc(C2Nc3ccccc3NC3=C2C(=O)CC(c2ccc(OC)c(OC)c2)C3)ccc1O (stereo not shown) | 4.86
CCOC(=O)C(C)N1C(=O)S/C(=C/c2ccc3c(c2)n(C)c(=O)n3C)C1=O (stereo not shown) | -26.8
CN1CCN(C(=O)O[C@H]2c3nccnc3C(=O)N2c2ccc(Cl)cn2)CC1 | 7.74
CCc1nn(CC(=O)NCCCN2CCN(C)CC2)c(=O)c2cc3sccc3n12 | 7.04
O=C(Cn1cc([N+](=O)[O-])nc1[N+](=O)[O-])N1CCN(c2ccccc2)CC1 | -8.46
O=C(NNc1c(Cl)cccc1Cl)c1sccc1Cl | 1.12
CN1C(=O)NC(c2cccc([N+](=O)[O-])c2)C2=C1CCCC2=O (stereo not shown) | 9.95
Cc1onc(-c2ccccc2Cl)c1C(=O)NNC(=O)c1ccccc1F | 23.2

Compound | hERG current change (%, negative = inhibition) at 10uM [%]
CN(CC(=O)NNC(=O)CNC(=O)c1cccs1)S(=O)(=O)c1ccc(Cl)cc1 | 4.41
S=c1[nH]nc(-c2cccc(Br)c2)o1 | 19.6
Cc1ccc(SCC(=O)Nc2cccc(S(=O)(=O)N3CCOCC3)c2)cc1C | -2.37
Cc1ccc(S(=O)(=O)Nc2ccc(S(=O)(=O)N3CCOCC3)cc2)cc1[N+](=O)[O-] | 15.3
CCc1ccc2nc(N3CCN(C(=O)C(C)(C)C)CC3)sc2c1 | -16.8
Nc1nonc1-n1nncc1-c1ccccc1 | 1.98
COc1ccc(C(=O)NC(=S)Nc2ccc(CN3CCOCC3)cc2)cc1Cl | 4.58
O=C(NCCc1ccc(F)cc1)C1CCN(C(=O)Nc2ccccc2)CC1 | -12.5
CCOc1ccc(NCCC(=O)c2ccc3c(c2)OCO3)cc1 | -5.36
C=C(C)CC1N(c2cccc(OC)c2)C(=O)[C@@H]2C(C(=O)O)[C@H]3C=C[C@@]12O3 (stereo partly shown) | 2.7
COc1ccc2[nH]c(C(=O)N/N=C/c3ccc(OC)c(O)c3)cc2c1 | 8.9
CNc1nc2cc([N+](=O)[O-])c([N+](=O)[O-])cc2nc1NC | -24.2
CN1C=CC2=C(C#N)C(N)C(C#N)(C#N)[C@H](c3ccccc3)[C@H]2C1 (stereo partly shown) | -4.67
COc1ccccc1NC(=O)N1CCN(c2cccc(C(F)(F)F)c2)CC1 | -76.6
O=C1CCCC(O)=C1N=Nc1ccc(Cl)c(Cl)c1 | 11.5
O=C(COC(=O)C1(c2ccccc2F)CCCC1)Nc1ncc(C(F)(F)F)cc1Cl | -10.1
COC(=O)c1ccc(C)c(NC(=O)CCc2ccc(OC)c(OC)c2)c1 | 6.37
c1ccc2c3n(nc2c1)CCCO3 | 13.3
CCN(CC)c1ccc(/C=N/NC(=S)NCc2ccccc2)c(O)c1 | 12
COc1ccc(-c2oc3ccc(-c4ccc(OC)nc4)cc3c2C#CC2(O)CCCCC2)cc1 | -7.96
Cc1ccc(C)c(NC(=O)CN(C)C(=O)c2ccc(-n3cncn3)c([N+](=O)[O-])c2)c1 | -26.7
CCc1cc(=O)oc2cc(OCC(=O)NCCCN3CCCC3=O)c(Cl)cc12 | 13.2

Compound | hERG current change (%, negative = inhibition) at 10uM [%]
Cc1ccc2nc(-c3ccncc3)cc(C(=O)N3CCC4(CC3)OCCO4)c2c1 | -12.8
CN(C)c1nnnn1Cc1ccccc1 | 12.1
CN(C)P1(N(C)C)=Nc2c(c(N)nn2C)C(c2ccccc2)=N1 | -6.87
C/C(=N\Nc1ccccc1)c1cc2ccccc2oc1=O | -2.09
NC1=NC[C@H](Cc2ccccc2)N1CC1CCCCC1 | 0.158
O=C(Nc1cc(S(=O)(=O)N2CCCCC2)ccc1Cl)c1ccncc1 | -50.2
COc1ccc(Cl)cc1NC(=O)CN(C)C(=O)c1ccc(N2CCCCC2)c([N+](=O)[O-])c1 | -18.8
COC(=O)CCCC(=O)N1CCCC(CCC(=O)NCc2ccc(F)c(F)c2)C1 (stereo not shown) | 0.17
Cc1occc1-c1nnc(SCC(=O)N2CCN(c3ccccc3)CC2)n1C | -27.8
COCCSc1ccccc1C(=O)N1CCc2ccccc2C1 | -6.61
O=C(COC(=O)C1(c2ccc(Cl)cc2)CCCC1)NCc1ccco1 | -12.9
CCCN(CCC)S(=O)(=O)c1ccc(NC(=O)Cc2cccs2)cc1 | -11.3
Nc1c(C=C2C=CC(=O)C=C2)c(=O)nc2sc(CC(=O)N3CCOCC3)nn12 | 23.2
Fc1ccc(Oc2ccc3nnc(C(F)(F)F)n3n2)cc1 | 3.53
O=C(Nc1ccccc1O)c1ccccc1O | -6.23
CCc1nc(Nc2ccccc2F)c2oc3ccccc3c2n1.Cl | 6.04
COC(=O)c1ccccc1N=Nc1c(N)[nH][nH]c1=O | -0.102
CCC(C)NC(=O)CS(=O)(=O)Cc1nc(-c2cccc(OC)c2)oc1C (stereo not shown) | 4.03
COc1ccc([C@@H]2[C@@H]3C(=O)N(C(C)(C)C)C(=O)[C@@H]3[C@]3(Cc4ccccc4)C(=O)N(c4ccc(C(F)(F)F)cc4)C(=O)N23)cc1 | -8.45
CC(C)(C)NC(=S)Nc1ccc(Br)cc1 | -2.45
Cc1cc2[nH]c3c(c[n+](C)c4ccccc34)c2cc1C.[I-] | -77.8
O=S(=O)(Nc1ccc(C(F)(F)F)cc1)c1cccs1 | -16.5

Compound | hERG current change (%, negative = inhibition) at 10uM [%]
CN(CCC#N)C(=O)COC(=O)c1cc(Cl)cc(Cl)c1N | -1.24
O=C(Nc1ccc2oc(-c3ccccc3F)nc2c1)c1ncn[nH]1 | 3.18
O=C(CCN1CCN(c2ccc(F)cc2)CC1)Nc1ccccc1F | -43
COc1ccc2cc3cc(C(=O)NCCCN4CCC(C)CC4)oc3nc2c1 | -58.5
COCCNC(=O)C(c1ccco1)N(Cc1ccc(OC)cc1)C(=O)Cn1nnc2ccccc21 (stereo not shown) | -11
Cc1ccc(S(=O)(=O)N[C@@H](C)C(=O)OCC(=O)N2c3ccccc3NC(=O)C2(C)C)cc1 | 0.585
COc1ccc(OC)c(N(CC(=O)N2CCN(c3cc(Cl)ccc3C)CC2)S(C)(=O)=O)c1 | -0.306
N=C1/C(=C/c2ccco2)C(=O)N=C2SC(CC(=O)N3CCCC3)=NN12 | 23.4
C[C@H](NC(=O)c1nc[nH]c1C(=O)N[C@@H](CCCCNC(=O)OC(C)(C)C)C(=O)OC(C)(C)C)c1ccccc1 | 9.69
O=c1c2cn[nH]c2[nH]c(=S)n1-c1ccccc1Cl | 24
Cc1cc(C)c(S(=O)(=O)NCCCn2ccnc2)c(C)c1 | -15.1
CC(C)=CC(=O)OCC(=O)Nc1ccccc1Cl | 5.48
CCOC(=O)N1CCN(c2cc(=O)n(-c3ccc(Br)cc3)c(=O)[nH]2)CC1 | 6.71
NS(=O)(=O)c1cccc(NC(=O)CSc2nn(-c3ccccc3)c(=S)s2)c1 | -2.29
CC(=O)Nc1ccc2c(c1)CCCC2=O | 11.7
Cc1cccc(Oc2ncnc3onc(C)c23)c1C | 4.88
COC(=O)/C=C1\SC(=Nc2ccccc2)NC1=O | 9.64
COc1cccc(CNC(=O)c2cccnc2Sc2ccccc2)c1 | 15.7
COc1ccc(CCNC(=O)CSc2nc3[nH]c(=O)cc(O)c3s2)cc1 | 3.77
CN1CCN(C(=O)OC2c3nccnc3C(=O)N2c2ccc(Cl)cn2)CC1 (stereo not shown) | 13.9
O=C(CCCSc1nc2ccccc2s1)Nc1nccs1 | -9.09
O=C(O)CNC(=O)c1ccccc1F | 1.74
